# Measurements as given in PubChem BioAssay AID1347073 (National Center for Advancing Translational Sciences (NCATS), 2019).
# Hit rate of the full screen: of about 45,000 compounds, about 200 (0.44%) were called active. Another 7% or so got no clear call; they are omitted. Calls follow the shape of the dose curve; as a rule, active = well fitted activation curve with a large enough effect; inconclusive = small, poorly fitted or top-dose-only effect; inactive = no such curve, though single readings can be large or run the other way. This is one part of the list.
# Assay: qHTS of TDP-43 Inhibitors: NCGC Sytravon Library Screen; also: 0% is about no effect; nearly all actives have a fitted effect of over 55% in size
# Details: yeast TDP-43 toxicity rescue, BacTiter-Glo growth, 24 h; series mostly up to 46.1 µM; growth rescue (activation): at the top concentration
# Method in brief: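 TDP-43-expressing yeast, pregrown in raffinose, seeded at OD600 0.02 in galactose medium with compound for 24 hr at 30 deg C. Growth read by BacTiter-Glo luminescence, so rescue of toxicity appears as activation.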
Structure (SMILES),growth rescue (activation),Potency
O=C(c1cccc(Oc2ccccc2)c1)N1CCN(c2ccccn2)CC1,inactive: 9.68%,–
CN(Cc1nnc(-c2ccc(F)cc2)o1)c1ccccc1,inactive: 19.3%,–
O=C(O)C1=NOC(CNC(=O)c2ccccc2Cl)C1 (stereo not given),inactive: -1.42%,–
COc1ccc(C2C(C#N)=C(N)Oc3c2ccc2cccnc32)cc1OC (stereo not given),inactive: -2.01%,–
COc1ccc(CC(=O)NNS(=O)(=O)c2ccc(F)cc2)cc1,inactive: 2.31%,–
COc1cc(/C=C/[N+](=O)[O-])ccc1OCc1cccc(C(=O)O)c1,inactive: -18.3%,–
CCC(C)(C(=O)Nc1ccc(OC)cc1)N(C)C(=O)Cn1nnnc1N (stereo not given),inactive: 1.65%,–
COc1ccccc1C(=O)NCC(=O)NCCc1ccc(Cl)cc1,inactive: -0.466%,–
O=C1C=C(O)C(n2cncn2)C(c2ccc(F)cc2)C1 (stereo not given),inactive: 8.44%,–
NC(=O)c1ccc(NC(=O)COC(=O)c2ccc3ccccc3n2)cc1,inactive: 2.67%,–
COc1cccc(NC(=O)C2(C)CCN2Cc2ccccc2Cl)c1 (stereo not given),inactive: 0.338%,–
Cc1ccc(N2C(=O)CC(NNc3nc4ccccc4s3)C2=O)cc1 (stereo not given),inactive: 42.5%,–
COc1ccc2[nH]cc(CCNC(=O)CS(=O)(=O)Cc3ccccc3)c2c1,inactive: 13.8%,–
Cc1cc(NC(=O)CCC(=O)NNC(=O)c2ccc(C(C)(C)C)cc2)no1,inactive: -14.5%,–
O=C(Nc1ccc(N2CCOCC2)cc1)c1nc2ccccc2s1,inactive: 16.9%,–
CC(=O)N1C(=O)/C(=C2\SC(=S)N(NC(=O)c3ccc(O)cc3)C2=O)c2ccccc21,inactive: 0.675%,–
CN1CCCN(C(=O)CC2(CC(=O)O)CCCCC2)CC1,inactive: -0.141%,–
COc1ccc(CNC(=O)C(C)N2C(=O)COc3ccc(C)cc32)c(OC)c1 (stereo not given),inactive: -1.31%,–
O=C(c1ccc(S(=O)(=O)NCc2ccco2)cc1)N1CCCC1,inactive: 3.29%,–
COc1c(OC(C)=O)ccc(/C=N\NC(=O)c2ccc(Br)cc2)c1[N+](=O)[O-],inactive: 7.39%,–
COc1ccc(NC(=O)C(CC(=O)O)Cc2ccc(Br)cc2)cc1 (stereo not given),inactive: -15%,–
CC1CC(C)CN(CCOCCSc2ccc(Cl)cc2)C1 (stereo not given),inactive: 12.3%,–
Nc1ccc(Cl)c(S(=O)(=O)Nc2ccc(Cl)cc2)c1,inactive: 11.6%,–
O=C(NC1CCCCC1)c1cc(-c2ccc(O)cc2)on1,inactive: 16.5%,–
CC(C)=CCN1CCN(CCCn2cccn2)CC1CCO (stereo not given),inactive: -17.6%,–
CC(C)CNC(=O)C1(C)CCCN1C(=O)c1cccnc1 (stereo not given),inactive: 7.33%,–
O=C(N/N=C/c1ccncc1)c1ccc(NC(=O)c2ccc(Cl)cc2)cc1,inactive: 11.4%,–

Structure (SMILES),growth rescue (activation),Potency
COc1ccc(C(=O)Nc2ccc3c(c2)nc(CCNC(=O)c2ccco2)n3C)cc1,inactive: 4.35%,–
CC(C)CNc1ncnc2c1ncn2[C@H]1CN(Cc2ccc(Cl)cc2)C[C@@H](CO)O1,inactive: 12.2%,–
Cc1ccc(SCC(=O)OCC(=O)NCCc2ccc(S(N)(=O)=O)cc2)c(C)c1,inactive: 10.2%,–
Cc1ccc(NC(=O)C(C)N2CCc3ccccc3C2)cc1 (stereo not given),inactive: 0.583%,–
Cc1ccc(-n2nc(C)c(C3(O)C(=O)N(C(C)C)c4ccccc43)c2N)cc1 (stereo not given),inactive: -9.77%,–
Cc1cccc(C)c1NC(=O)COC(=O)c1ccccc1Nc1ccccc1,inactive: 1.64%,–
CCOc1ccc(C(=O)OCC(=O)NCc2ccccc2)cc1OCC,inactive: 22.5%,–
CC(C)NC(=O)C1(C)CCCN1C(=O)c1ccccc1Br (stereo not given),inactive: 15.8%,–
O=C(COC(=O)/C=C/c1ccccc1)NCCc1ccc(F)cc1,inactive: 2.31%,–
N#CCCn1c(SCC(=O)Nc2ccc(N3CCOCC3)cc2)nc2ccccc21,inactive: 9.24%,–
COc1ccc(S(=O)(=O)N2CCC(C(=O)NC3CCCC3)CC2)cc1OC,inactive: 13.7%,–
CN(c1ccccc1)S(=O)(=O)c1ccc(Cl)c(C(=O)NCCc2c[nH]c3ccccc23)c1,inactive: -0.221%,–
O=C(CNC(=O)Cc1cccc2ccccc12)NCc1ccccc1F,inactive: -1.22%,–
CC(OC(=O)c1ccc(C#N)cc1)C(=O)Nc1ccc(Cl)cn1 (stereo not given),inactive: -16.3%,–
COc1ccc(OC)c(/C=C/C(=O)OCC(=O)Nc2cccc(C(C)=O)c2)c1,inactive: 15.8%,–
CN(CC(=O)Nc1ccc(C#N)cc1)CC(=O)Nc1ccc(N2CCOCC2)cc1,inactive: -20.4%,–
O=C(O)CC12C[C@H]3C[C@@H](C1)CC(n1ncc(N4CCN(c5ccccc5)CC4)c(Cl)c1=O)(C3)C2,inactive: 6.86%,–
C/C(Cc1ccccc1)=N\NC(=O)CNC(=O)c1ccccc1Cl,inactive: 12.4%,–
CCNC(=O)NC(=O)C(C)Sc1nc2ccccc2c(=O)n1-c1cccnc1 (stereo not given),inactive: 7.26%,–
COc1cc(Cl)c(C)cc1NC(=O)COc1ccc(C)nc1[N+](=O)[O-],inactive: 17.6%,–
Cc1cccc(NS(=O)(=O)c2ccc3[nH]c(=O)oc3c2)c1C,inactive: 1.26%,–
C1=C(CCNc2ncnc3c2[nH]c2ccccc23)CCCC1,inactive: 16.4%,–
Cc1c(NS(=O)(=O)c2cccc(C(=O)NCc3ccccc3Cl)c2)c(=O)n(-c2ccccc2)n1C,inactive: 3.88%,–
COc1cccc(CC(=O)N2CCN(c3ccccc3[N+](=O)[O-])CC2)c1,inactive: 4.1%,–
CCOc1cc(Br)c(COc2ccc(C)nc2[N+](=O)[O-])cc1OCC,inactive: -1.33%,–
CCN(C(=O)CSc1nnnn1-c1ccc(Cl)cc1)C1CCS(=O)(=O)C1 (stereo not given),inactive: -0.699%,–
O=C(CSc1cc(Cl)ccc1Cl)NCCN1C(=O)CSC1=O,inactive: 5.35%,–

Structure (SMILES),growth rescue (activation),Potency
Cc1cccc(NC(=O)CSc2cccc[n+]2[O-])c1C,inactive: -13.5%,–
CCCNC(=O)C1(C)CCN(C(=O)c2ccc3c(c2)CCO3)C1 (stereo not given),inactive: -0.193%,–
O=C(C1CN(S(=O)(=O)c2ccccc2)CCN1S(=O)(=O)c1ccccc1)N1CCCCCC1 (stereo not given),inactive: 5.42%,–
Cc1cccc(C)c1-n1c(SCC(=O)N2CC(=O)Nc3ccccc32)nc2ccccc2c1=O,inactive: 5.37%,–
CCN(CC)CCOC(=O)c1ccc(N/C=C(/C#N)c2nc(-c3ccc(OC)c(OC)c3)cs2)cc1,inactive: -83%,–
Cc1cc(Nc2ccccc2O)c2ccccc2n1,inactive: 13.1%,–
COc1ccc(C2CCCCCN2Cc2nc3ccccc3c(=O)n2CC(N)=O)cc1 (stereo not given),inactive: -0.819%,–
CCN(CC)S(=O)(=O)c1ccc(N2CCOCC2)c(NS(=O)(=O)c2ccc(C)cc2)c1,inactive: -8.97%,–
CC(C)CN(CC(C)C)CC(O)CN(c1ccccc1)S(=O)(=O)c1ccccc1[N+](=O)[O-] (stereo not given),inactive: -5.5%,–
COc1ccc(C(C(=O)NCC2CCCO2)N(C(=O)CNC(=O)c2cccs2)c2ccccc2)cc1OC (stereo not given),inactive: 2.18%,–
CN(C)c1nc(C(=O)O)nc(N2CCOCC2)n1,inactive: 10.2%,–
COCCN(CCOC)Cc1c(O)ccc2c1O/C(=C\c1ccc(C)o1)C2=O,inactive: -7.61%,–
CN1CCN(C(N)=NC(=O)c2ccccc2)CC1,inactive: -14.1%,–
CCOC(=O)c1c(C)[nH]c(C(=O)COC(=O)CNC(=O)c2ccc(Br)cc2)c1C,inactive: 22.1%,–
CC1S/C(=N/N=C2CCCCC2)NC1=O (stereo not given),inactive: 0.0251%,–
CN(C)S(=O)(=O)c1ccc(Cl)c(-c2nnc3n2CCCCC3)c1,inactive: 4.89%,–
Cc1ccc(S(=O)(=O)Nc2nc3ccccc3nc2NCC2CCCO2)c(C)c1 (stereo not given),inactive: 30.5%,–
Cc1ccccc1CCNC(=O)C1CC(O)CN1C(=O)Nc1ccccc1 (stereo not given),inactive: -2.19%,–
COc1ccc(C(=O)Nc2ccc(-c3nc4cc(C)ccc4o3)c(O)c2)cc1,inactive: 2.94%,–
CCN1CCC(N(Cc2ccc(F)cc2)C(=O)Nc2ccc(C)c(F)c2)CC1,inactive: 14%,–
CCOC(=O)C1CCN(C(=O)c2ccccc2N(C)S(=O)(=O)c2ccccc2)CC1,inactive: -1.36%,–
CNS(=O)(=O)c1cc(NC(=O)c2cnc(SC)n2-c2ccccc2)ccc1C,inactive: 10.6%,–
CCOc1cc(/C=N/NC(=O)c2cc(-c3ccccc3)nc3ccccc23)ccc1O,inactive: 1.5%,–
COc1cc(Cl)c(NC(=O)CN2C(=O)c3cccnc3Sc3ccccc32)c(OC)c1,inactive: 10.5%,–
Cc1nc2ccc(S(=O)(=O)NCC(=O)NCc3ccc(Cl)cc3)cc2s1,inactive: 17.2%,–
Cn1nnc2c[n+](CC(=O)c3ccc(Cl)cc3)cc(Br)c21,inactive: 21.3%,–
CS(=O)(=O)c1ccc(SCC(=O)NC2CCS(=O)(=O)C2)c([N+](=O)[O-])c1 (stereo not given),inactive: -15.5%,–

Structure (SMILES),growth rescue (activation),Potency
O=C(COC(=O)C(O)c1ccccc1)c1ccc2c(c1)OCCO2 (stereo not given),inactive: 32.6%,–
O=C1NC2(CCCCCC2)C(=O)N1CCS(=O)(=O)Oc1ccccc1,inactive: 4.93%,–
CN(C)S(=O)(=O)c1cccc(C(=O)Nc2ccccc2[N+](=O)[O-])c1,inactive: 17.9%,–
NC(=O)c1ccc(NC(=O)COC(=O)C2CC3C=CC2C3)cc1 (stereo not given),inactive: 15.3%,–
CC(C)C1CC(CCNCc2ccc3c(c2)OCO3)(c2ccccc2)CCO1 (stereo not given),inactive: 14.3%,–
C=CCn1c(SCC(=O)Nc2cc(C)on2)nnc1-c1ccccc1F,inactive: 3.09%,–
O=C(O)C1=C(Nc2ccccc2)OCC1=O,inactive: 1.81%,–
COc1cccc(C(=O)NCCNC(=O)c2ccccn2)c1,inactive: -8.64%,–
O=C(C1=NN(c2ccccc2)C2C(=O)N(c3ccccc3)C(=O)C12)c1ccccc1 (stereo not given),inactive: 8.23%,–
COc1ccc(/C=N/NC(=O)c2cc[n+]([O-])cc2)cc1,inactive: 18.4%,–
CC(=O)Nc1ccc(S(=O)(=O)Nc2ccc(Cc3ccncc3)cc2)cc1,inactive: -22.7%,–
COc1ccc(CCN2C(=O)c3ccccc3NC2c2cc(Cl)c(O)c(OC)c2)cc1 (stereo not given),inactive: 13.9%,–
CN1CCN(c2ccc(CNC(=O)C3Cc4c(-c5ccccc5)ccnc4O3)cc2)CC1 (stereo not given),inactive: 3.06%,–
CCOC(=O)c1ccccc1OC(=O)CS(=O)c1ccccc1[N+](=O)[O-] (stereo not given),inactive: 22.4%,–
CC(C)[C@H](NC(=O)Cc1ccccc1)C(=O)OCc1cc(=O)n2c(n1)sc1ccccc12,inactive: 14.9%,–
CC(C)OC(=O)CSc1nc(N)c(C#N)cc1C#N,inactive: 14.3%,–
Cc1nc(NC(=O)/C=C/c2ccco2)sc1C,inactive: -13.4%,–
COc1ccc(-n2nnc(-c3nc(-c4ccc5c(c4)OCO5)no3)c2C)cc1Cl,inactive: -3.54%,–
COc1ccc(/C=C2/SC(=O)N(CCNC(=O)CC(NC(C)=O)c3ccccc3)C2=O)cc1 (stereo not given),inactive: -1.15%,–
Cc1ccc2c(C)nc(/N=C(\N)NC(=O)N3c4ccccc4Sc4ccccc43)nc2c1,–,inactive
Cc1ccc(NC(=O)NC(C)c2c(-n3cccc3)sc(C)c2C)c(C)c1 (stereo not given),inactive: 16.3%,–
CCC1Oc2ccccc2N(CC(=O)N2CCOCC2)C1=O (stereo not given),inactive: -1.09%,–
CCN(CC)S(=O)(=O)c1cc(C(=O)OCC(=O)Nc2cccc(S(=O)(=O)N(C)C)c2)ccc1F,inactive: -0.477%,–
O=C(Nc1cccc(C(F)(F)F)c1)Nc1nnc([C@@H]2C[C@H](O)[C@@H](CO)O2)s1,inactive: 4.66%,–
